# Measured values published in the BET-seq Pho4 binding data (Le et al. 2018).
# The other results are listed elsewhere or left out. The energies were worked out here from pooled read counts, against the library average; single values are noisy.
# Target: T1, Pho4 (S. cerevisiae) (UniProt P07270)
# T1 sequence: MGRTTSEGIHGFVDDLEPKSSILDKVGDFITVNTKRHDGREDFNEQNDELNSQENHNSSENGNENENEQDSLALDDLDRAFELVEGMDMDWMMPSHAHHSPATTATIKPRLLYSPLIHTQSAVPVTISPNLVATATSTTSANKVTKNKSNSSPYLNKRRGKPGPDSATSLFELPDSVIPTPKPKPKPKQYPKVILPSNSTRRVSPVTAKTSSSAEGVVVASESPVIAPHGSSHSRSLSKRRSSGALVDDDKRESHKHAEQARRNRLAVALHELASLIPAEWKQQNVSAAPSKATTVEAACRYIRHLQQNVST
# Assay: relative binding free energy (BET-seq); higher = weaker binding
# Conditions: reference: library average
row,Sequence,relative binding free energy
1,TTTACCACGTGTGGTG,-0.12 kcal/mol
2,CCGGGCACGTGGTTTT,-0.07 kcal/mol
3,TTGGCCACGTGCGTGG,-0.04 kcal/mol
4,TGCTGCACGTGCGAGG,0.03 kcal/mol
5,GGGAACACGTGCAGGT,0.06 kcal/mol
6,GATTTCACGTGTGGCA,0.53 kcal/mol
7,TTGTGCACGTGTGGAA,0.09 kcal/mol
8,TGCGCCACGTGAGGGG,-0.17 kcal/mol
9,CTGGGCACGTGGGCTC,-0.15 kcal/mol
10,TAATTCACGTGGGATA,0.24 kcal/mol
11,GGGAGCACGTGCGCGT,-0.24 kcal/mol
12,TACGGCACGTGTTGTG,-0.14 kcal/mol
13,TTGGGCACGTGCCTGG,-0.29 kcal/mol
14,GTATTCACGTGTCCGG,0.27 kcal/mol
15,TAGCTCACGTGGCTTG,0.11 kcal/mol
16,GAGTGCACGTGGCGGT,-0.06 kcal/mol
17,GTAGGCACGTGAATGC,0.2 kcal/mol
18,TCTTTCACGTGGTGGA,0.22 kcal/mol
19,TCGAGCACGTGATTGT,0.12 kcal/mol
20,AAGGGCACGTGTTGTA,-0.14 kcal/mol
21,GATGACACGTGGGAGT,0.07 kcal/mol
22,AATTGCACGTGAAGGG,0.27 kcal/mol
23,TGAGTCACGTGATGCT,0.28 kcal/mol
24,GTTAGCACGTGGGGAT,-0.19 kcal/mol
25,ATGGCCACGTGAGGTT,0.19 kcal/mol

row,Sequence,relative binding free energy
1,TTTATCACGTGTCATA,0.14 kcal/mol
2,AAGTTCACGTGTTGCA,0.2 kcal/mol
3,AGAATCACGTGATGGA,0.37 kcal/mol
4,GTGATCACGTGGTATA,-0.05 kcal/mol
5,GGTCTCACGTGCTAGT,0.27 kcal/mol
6,CGGGTCACGTGATGGT,0.1 kcal/mol
7,TTGGTCACGTGTAGTC,0.17 kcal/mol
8,TGTGACACGTGGAGAT,-0.09 kcal/mol
9,TGTTGCACGTGCGGTT,0.04 kcal/mol
10,ACGGGCACGTGGATTT,-0.02 kcal/mol
11,TTTTTCACGTGCATTA,0.23 kcal/mol
12,TATATCACGTGGGCTG,0.04 kcal/mol
13,AGTGTCACGTGTCGGA,0.14 kcal/mol
14,TTCATCACGTGTGCGT,0.24 kcal/mol
15,ATAGGCACGTGTCTTT,-0.14 kcal/mol
16,GAGGACACGTGGTATA,0.1 kcal/mol
17,TTTTACACGTGCGGTG,0.07 kcal/mol
18,TTGGGCACGTGGTAGT,-0.11 kcal/mol
19,GGTCGCACGTGGGCCT,-0.03 kcal/mol
20,GGGTTCACGTGAGTCG,0.51 kcal/mol
21,GATCCCACGTGGGGGG,-0.05 kcal/mol
22,TTGGTCACGTGGTGAT,0.02 kcal/mol
23,ACGGGCACGTGAGGTG,0.01 kcal/mol
24,TTAGGCACGTGTCTGT,-0.11 kcal/mol
25,AATTGCACGTGGATTA,0.02 kcal/mol

row,Sequence,relative binding free energy
1,GTGCACACGTGAAGGT,0.31 kcal/mol
2,ATTTCCACGTGTAGGT,0.06 kcal/mol
3,GTTTACACGTGAAGTT,0.38 kcal/mol
4,GATCACACGTGGGCGG,0.09 kcal/mol
5,GGGGTCACGTGGAAGT,0.14 kcal/mol
6,GCGTGCACGTGCATGG,-0.05 kcal/mol
7,GCAGACACGTGTGGTT,0.16 kcal/mol
8,TAGATCACGTGTTTGT,0.05 kcal/mol
9,TTGCACACGTGAGCGT,0.28 kcal/mol
10,GGGTTCACGTGCATGC,0.33 kcal/mol
11,ATAACCACGTGGTGTA,-0.05 kcal/mol
12,GATTACACGTGTGGTA,0.32 kcal/mol
13,AGGGCCACGTGTGGGC,-0.08 kcal/mol
14,AGGAACACGTGGGGAG,-0.07 kcal/mol
15,GTGCTCACGTGCGGAT,0.25 kcal/mol
16,TCGGGCACGTGGAGGG,-0.15 kcal/mol
17,GTGCTCACGTGTGAGG,0.5 kcal/mol
18,ATAAGCACGTGCGTGG,-0.22 kcal/mol
19,AAGGGCACGTGCGGAG,-0.11 kcal/mol
20,GAGTGCACGTGTGATA,0.16 kcal/mol
21,ACGTGCACGTGCGGAG,0.08 kcal/mol
22,TTGTACACGTGTCAAG,0.06 kcal/mol
23,GGACACACGTGGGTGT,-0.2 kcal/mol
24,TGTATCACGTGTGTGC,0.27 kcal/mol
25,ATTAACACGTGCAGTT,0.03 kcal/mol

row,Sequence,relative binding free energy
1,AGATTCACGTGGTAGA,0.16 kcal/mol
2,GATAGCACGTGTAATG,0 kcal/mol
3,GTTTTCACGTGTTCGA,0.48 kcal/mol
4,ATGAACACGTGGTAAG,0.01 kcal/mol
5,GCGGTCACGTGAGTAT,0.37 kcal/mol
6,GAGTTCACGTGTGCTT,0.19 kcal/mol
7,GTGATCACGTGGAATG,0.29 kcal/mol
8,TGGGTCACGTGTCAGA,0.11 kcal/mol
9,GGGGCCACGTGTAGGT,0.07 kcal/mol
10,GAGGTCACGTGGTTGA,0.18 kcal/mol
11,GACGGCACGTGGGTTA,-0.07 kcal/mol
12,TGGCGCACGTGGTAGA,-0.14 kcal/mol
13,GTTGACACGTGTCTGT,-0.03 kcal/mol
14,TCGGTCACGTGGTGCG,0.13 kcal/mol
15,TGTAACACGTGTCTTG,-0.09 kcal/mol
16,GTTTACACGTGTGGAA,0.22 kcal/mol
17,GAGTGCACGTGGGGCG,-0.12 kcal/mol
18,AGTCGCACGTGGGATT,-0.12 kcal/mol
19,ATGCTCACGTGTGGCG,0.11 kcal/mol
20,CGTGGCACGTGTGGAT,-0.03 kcal/mol
21,GTGGCCACGTGTCAGG,-0.04 kcal/mol
22,AAGTACACGTGTTTAT,0.09 kcal/mol
23,GGAAACACGTGGTTAT,0.03 kcal/mol
24,CATTGCACGTGTTTGT,-0.02 kcal/mol
25,CTTTTCACGTGGATAT,0.16 kcal/mol

row,Sequence,relative binding free energy
1,GAGAACACGTGTGGTA,0.07 kcal/mol
2,TAGTTCACGTGGAAGG,0.32 kcal/mol
3,TTGTCCACGTGGGCGT,-0.25 kcal/mol
4,GTTGGCACGTGACAAG,-0.02 kcal/mol
5,TAAAACACGTGTGGTG,0.03 kcal/mol
6,GGGAGCACGTGGTGTG,-0.25 kcal/mol
7,TGTTACACGTGTTTAG,0.17 kcal/mol
8,CTCTTCACGTGGTTGT,0.23 kcal/mol
9,AGGCCCACGTGGTGGT,-0.27 kcal/mol
10,TTAATCACGTGGTGAC,0.17 kcal/mol
11,ATTGTCACGTGTTTAT,0.09 kcal/mol
12,AAGTGCACGTGGTATC,0.08 kcal/mol
13,AGAATCACGTGTTTTG,0.08 kcal/mol
14,AGCTACACGTGTGTTT,0.13 kcal/mol
15,TTCAACACGTGTGTCG,0.18 kcal/mol
16,TGTTCCACGTGTGTGT,0.09 kcal/mol
17,CGAAGCACGTGTTGAG,-0.02 kcal/mol
18,CTTGTCACGTGTTTGT,0.05 kcal/mol
19,CGTGGCACGTGGGTCT,-0.2 kcal/mol
20,GCTGGCACGTGAGTGT,0.09 kcal/mol
21,GAGCTCACGTGCGGGT,0.2 kcal/mol
22,GGGACCACGTGGGATG,-0.09 kcal/mol
23,TTTTTCACGTGGATTT,0.26 kcal/mol
24,AAGCGCACGTGGTTGA,-0.07 kcal/mol
25,CGAGTCACGTGTGTAA,0.04 kcal/mol

row,Sequence,relative binding free energy
1,TCGGTCACGTGGAGCG,0.14 kcal/mol
2,GTATCCACGTGGTTGG,0.17 kcal/mol
3,TAGATCACGTGAAATG,0.48 kcal/mol
4,TTTTCCACGTGATATT,0.2 kcal/mol
5,TCGGGCACGTGTCCTG,0.08 kcal/mol
6,TCTTGCACGTGTAGTG,0.13 kcal/mol
7,CATGTCACGTGACGGT,0.13 kcal/mol
8,TAGGGCACGTGTAGCT,-0.19 kcal/mol
9,AGGATCACGTGGTAAT,0.09 kcal/mol
10,TCGTTCACGTGTGGGG,0.33 kcal/mol
11,TAGGGCACGTGTAGGA,-0.1 kcal/mol
12,TCGGGCACGTGAATGT,0.17 kcal/mol
13,TTTCGCACGTGATTGG,0.25 kcal/mol
14,GTGTCCACGTGTAGTA,0.33 kcal/mol
15,TAAGGCACGTGAGCTT,0.09 kcal/mol
16,TGGGACACGTGAAGGG,0.27 kcal/mol
17,ATCAACACGTGTTTGG,-0.02 kcal/mol
18,TCGTTCACGTGTGCTT,0.28 kcal/mol
19,CTTGTCACGTGGATAT,0.18 kcal/mol
20,TGTTTCACGTGACAGT,0.19 kcal/mol
21,TGGTTCACGTGGGGAG,0.23 kcal/mol
